We go through two molecules from publication PMC11004410, “Apolipoprotein A1 and high-density lipoprotein limit low-density lipoprotein transcytosis by binding SR-B1” (Journal of Lipid Research, 2024).

Assay [1] concerns the target T1, GFP-SR-B1 (fusion protein) (UniProt Q8WTV0 1-552).
T1 sequence (looked up): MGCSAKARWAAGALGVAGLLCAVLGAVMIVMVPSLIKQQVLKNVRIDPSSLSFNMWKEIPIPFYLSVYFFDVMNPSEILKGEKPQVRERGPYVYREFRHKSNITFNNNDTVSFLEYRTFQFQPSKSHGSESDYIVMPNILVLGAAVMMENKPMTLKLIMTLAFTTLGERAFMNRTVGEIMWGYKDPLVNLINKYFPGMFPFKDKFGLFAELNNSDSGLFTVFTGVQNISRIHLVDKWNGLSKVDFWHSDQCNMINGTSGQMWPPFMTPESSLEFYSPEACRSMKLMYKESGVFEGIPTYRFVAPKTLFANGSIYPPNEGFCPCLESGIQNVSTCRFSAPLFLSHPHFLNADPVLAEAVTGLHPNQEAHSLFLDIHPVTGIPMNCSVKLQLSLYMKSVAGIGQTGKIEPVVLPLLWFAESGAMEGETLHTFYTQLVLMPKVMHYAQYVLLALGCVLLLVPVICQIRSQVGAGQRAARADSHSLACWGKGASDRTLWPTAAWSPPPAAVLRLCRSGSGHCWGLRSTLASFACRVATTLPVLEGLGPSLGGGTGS
The assay can be described thus: cell-based or functional assay.

The target of assay [2] is T2, His-tagged SR-B1 ectodomain (His6.hSR-B1 (amino acid 33-444)) (human, UniProt Q8WTV0 33-444, labeled with the Monolith His-Tag Labeling Kit Red-tris-NTA).
T2 construct: scavenger receptor B1 (SR-B1), human, luminal domain / ectodomain, amino acids 33-444; Cloned into PB-T-PAF downstream of the protein A tag; also called His6.hSR-B1(amino acids 33-444); His6.hSR-B^(33-444); not shown: His6, N-terminal, kept
T2 sequence (looked up): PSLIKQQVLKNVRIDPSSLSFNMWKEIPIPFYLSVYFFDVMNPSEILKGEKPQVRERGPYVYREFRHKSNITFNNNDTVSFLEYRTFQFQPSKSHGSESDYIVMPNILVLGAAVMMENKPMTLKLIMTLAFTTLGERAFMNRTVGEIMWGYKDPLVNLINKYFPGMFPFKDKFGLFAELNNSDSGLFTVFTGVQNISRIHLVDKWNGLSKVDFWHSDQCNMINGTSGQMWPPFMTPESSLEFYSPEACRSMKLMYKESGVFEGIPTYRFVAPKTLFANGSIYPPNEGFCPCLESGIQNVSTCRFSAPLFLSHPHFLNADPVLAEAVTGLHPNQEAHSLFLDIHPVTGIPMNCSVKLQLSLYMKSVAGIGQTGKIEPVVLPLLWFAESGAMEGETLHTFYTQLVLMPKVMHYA
The assay is described as follows: MST; Monolith NT.115; 50 nM His6.hSR-B1(33-444) labeled with Red-tris-NTA; APOA1 or APOA1-Milano from 1 nM to 8 μM; PBS with 0.05% Tween; room temperature; 40% LED power, high MST power; apparent Kd. The following applies: both partners purified.

B1: recombinant APOA1-Milano, from ClearColi (natural protein)
chain: not shown
With B1, in assay [1], the “reduction of DiI-LDL internalization in HCAECs by 20-fold excess (by protein mass) of unlabeled recombinant APOA1-Milano, against PBS; competition with LDL” value amounted to 2.9 fold and the “uptake of DiI-rHDL^Mil (APOA1-Milano in DMPC particles, 5 μg/ml, 1 h, 37°C) by HeLa cells expressing untagged SR-B1 + GFP, DiI fluorescence against cells expressing soluble GFP or GFP-Alk1” value was around 15 fold.

B2: full-length APOA1-Milano, from 293F cells (protein A-APOA1-Milano) (natural protein)
chain: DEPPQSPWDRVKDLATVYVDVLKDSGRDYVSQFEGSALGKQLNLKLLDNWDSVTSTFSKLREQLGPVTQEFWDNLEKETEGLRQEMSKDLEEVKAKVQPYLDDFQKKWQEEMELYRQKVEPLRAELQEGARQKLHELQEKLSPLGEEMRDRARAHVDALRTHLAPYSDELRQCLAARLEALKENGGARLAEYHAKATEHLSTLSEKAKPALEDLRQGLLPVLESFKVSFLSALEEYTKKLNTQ
Turning to B2, the Kd in assay [2] was 2060 nM.
